This is one part of the list. The list includes weakly bound sequences.

In this experiment the target is T1, MBP-FoxP3dN (UniProt Q99JB6).
T1 sequence: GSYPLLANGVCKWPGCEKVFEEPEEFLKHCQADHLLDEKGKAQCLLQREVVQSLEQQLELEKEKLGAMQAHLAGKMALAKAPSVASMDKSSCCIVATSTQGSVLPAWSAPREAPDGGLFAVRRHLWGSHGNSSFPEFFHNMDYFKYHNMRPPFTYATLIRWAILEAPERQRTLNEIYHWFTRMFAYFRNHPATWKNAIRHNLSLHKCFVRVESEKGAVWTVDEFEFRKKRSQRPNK
Briefly: PD-seq (MBP pull-down with sequencing). As to conditions: 20 mM Tris-HCl pH 7.5, 100 mM NaCl, 1.5 mM MgCl2, 0.4 uM protein, 0.1 uM dsDNA library, 30 min, room temperature, amylose pull-down; high values mean tight binding; double strand, one strand shown.
For the sequence “GATGATTGTTCTCCCAGCTGATGAATTGACTGTTTCGAGTAAACAAATTTTCCTAATCTTTCTGTTCAAGCGCCATCTAC”, the binding signal (RPM ratio (pull-down/input)) was found to be 0.564. Take “GATGATTGTTCTCCCAGCTGATGAATTTAATAGCTCGAGTAAACAAATTTTCCTAATCTTTCTGTTCAAGCGCCATCTAC”: the binding signal (RPM ratio (pull-down/input)) worked out at 1.63. On to “GATGATTGTTCTCCCAGCTGATGAATTGGAAGGATCGAGTAAACAAATTTTCCTAATCTTTCTGTTCAAGCGCCATCTAC”, for which the binding signal (RPM ratio (pull-down/input)) came out at 0.193. The same measure for “GATGATTGTTCTCCCAGCTGATGAATTCGTGCTCTCGAGTAAACAAATTTTCCTAATCTTTCTGTTCAAGCGCCATCTAC”: 0.608; for “GATGATTGTTCTCCCAGCTGATGAATTCCTTACTTCGAGTAAACAAATTTTCCTAATCTTTCTGTTCAAGCGCCATCTAC”: 0.246; for “GATGATTGTTCTCCCAGCTGATGAATTTGAGAGATCGAGTAAACAAATTTTCCTAATCTTTCTGTTCAAGCGCCATCTAC”: 0.232. Next, “GATGATTGTTCTCCCAGCTGATGAATTATCCGGGTCGAGTAAACAAATTTTCCTAATCTTTCTGTTCAAGCGCCATCTAC”: 0.173; “GATGATTGTTCTCCCAGCTGATGAATTAGGGAAGTCGAGTAAACAAATTTTCCTAATCTTTCTGTTCAAGCGCCATCTAC”: 0.209. As to “GATGATTGTTCTCCCAGCTGATGAATTATACGCCTCGAGTAAACAAATTTTCCTAATCTTTCTGTTCAAGCGCCATCTAC”, the binding signal (RPM ratio (pull-down/input)) turned out to be 0.63. On to “GATGATTGTTCTCCCAGCTGATGAATTGGTTGCGTCGAGTAAACAAATTTTCCTAATCTTTCTGTTCAAGCGCCATCTAC”, for which the binding signal (RPM ratio (pull-down/input)) turned out to be 1.98.

Regarding “GATGATTGTTCTCCCAGCTGATGAATTGCCGGACTCGAGTAAACAAATTTTCCTAATCTTTCTGTTCAAGCGCCATCTAC”, the binding signal (RPM ratio (pull-down/input)) was 0.37.

In the case of “GATGATTGTTCTCCCAGCTGATGAATTACGCAAGTCGAGTAAACAAATTTTCCTAATCTTTCTGTTCAAGCGCCATCTAC”, the binding signal (RPM ratio (pull-down/input)) is 1.91.

On to “GATGATTGTTCTCCCAGCTGATGAATTGACTATATCGAGTAAACAAATTTTCCTAATCTTTCTGTTCAAGCGCCATCTAC”, for which the binding signal (RPM ratio (pull-down/input)) was found to be 0.464. As for “GATGATTGTTCTCCCAGCTGATGAATTTGAAAGATCGAGTAAACAAATTTTCCTAATCTTTCTGTTCAAGCGCCATCTAC”, the binding signal (RPM ratio (pull-down/input)) is 0.178. Turning to “GATGATTGTTCTCCCAGCTGATGAATTGTTCAATTCGAGTAAACAAATTTTCCTAATCTTTCTGTTCAAGCGCCATCTAC”, the binding signal (RPM ratio (pull-down/input)) came out at 0.409. Regarding “GATGATTGTTCTCCCAGCTGATGAATTTCTCATATCGAGTAAACAAATTTTCCTAATCTTTCTGTTCAAGCGCCATCTAC”, the binding signal (RPM ratio (pull-down/input)) turned out to be 0.364. The same measure for “GATGATTGTTCTCCCAGCTGATGAATTATATTTGTCGAGTAAACAAATTTTCCTAATCTTTCTGTTCAAGCGCCATCTAC”: 5.66; for “GATGATTGTTCTCCCAGCTGATGAATTGGTGTCGTCGAGTAAACAAATTTTCCTAATCTTTCTGTTCAAGCGCCATCTAC”: 1.18. Regarding “GATGATTGTTCTCCCAGCTGATGAATTAGCGGTTTCGAGTAAACAAATTTTCCTAATCTTTCTGTTCAAGCGCCATCTAC”, the binding signal (RPM ratio (pull-down/input)) is 0.702. For “GATGATTGTTCTCCCAGCTGATGAATTGGACTCCTCGAGTAAACAAATTTTCCTAATCTTTCTGTTCAAGCGCCATCTAC”, the binding signal (RPM ratio (pull-down/input)) stood at 0.395. The same measure for “GATGATTGTTCTCCCAGCTGATGAATTGGGTACTTCGAGTAAACAAATTTTCCTAATCTTTCTGTTCAAGCGCCATCTAC”: 0.488; for “GATGATTGTTCTCCCAGCTGATGAATTGCCCTCATCGAGTAAACAAATTTTCCTAATCTTTCTGTTCAAGCGCCATCTAC”: 0.621. Next, “GATGATTGTTCTCCCAGCTGATGAATTGGCCAGATCGAGTAAACAAATTTTCCTAATCTTTCTGTTCAAGCGCCATCTAC”: 0.202. For the sequence “GATGATTGTTCTCCCAGCTGATGAATTGTCCGATTCGAGTAAACAAATTTTCCTAATCTTTCTGTTCAAGCGCCATCTAC”, the binding signal (RPM ratio (pull-down/input)) is 0.288. “GATGATTGTTCTCCCAGCTGATGAATTTTGACATTCGAGTAAACAAATTTTCCTAATCTTTCTGTTCAAGCGCCATCTAC”: the binding signal (RPM ratio (pull-down/input)) was 2.04. Turning to “GATGATTGTTCTCCCAGCTGATGAATTGGAATGGTCGAGTAAACAAATTTTCCTAATCTTTCTGTTCAAGCGCCATCTAC”, the binding signal (RPM ratio (pull-down/input)) was 0.373. The same measure for “GATGATTGTTCTCCCAGCTGATGAATTATTGCGCTCGAGTAAACAAATTTTCCTAATCTTTCTGTTCAAGCGCCATCTAC”: 1.24.

As to “GATGATTGTTCTCCCAGCTGATGAATTTCGTAGGTCGAGTAAACAAATTTTCCTAATCTTTCTGTTCAAGCGCCATCTAC”, the binding signal (RPM ratio (pull-down/input)) is 0.422. For “GATGATTGTTCTCCCAGCTGATGAATTTAATGATTCGAGTAAACAAATTTTCCTAATCTTTCTGTTCAAGCGCCATCTAC”, the binding signal (RPM ratio (pull-down/input)) is 1.64. Turning to “GATGATTGTTCTCCCAGCTGATGAATTATAAAAGTCGAGTAAACAAATTTTCCTAATCTTTCTGTTCAAGCGCCATCTAC”, the binding signal (RPM ratio (pull-down/input)) came out at 0.212. Turning to “GATGATTGTTCTCCCAGCTGATGAATTTGCCATGTCGAGTAAACAAATTTTCCTAATCTTTCTGTTCAAGCGCCATCTAC”, the binding signal (RPM ratio (pull-down/input)) is 1.45. “GATGATTGTTCTCCCAGCTGATGAATTCCGACACTCGAGTAAACAAATTTTCCTAATCTTTCTGTTCAAGCGCCATCTAC”: the binding signal (RPM ratio (pull-down/input)) was found to be 1.97. As for “GATGATTGTTCTCCCAGCTGATGAATTGAATGCATCGAGTAAACAAATTTTCCTAATCTTTCTGTTCAAGCGCCATCTAC”, the binding signal (RPM ratio (pull-down/input)) amounted to 2.15. Next, “GATGATTGTTCTCCCAGCTGATGAATTGCCCTTGTCGAGTAAACAAATTTTCCTAATCTTTCTGTTCAAGCGCCATCTAC”: 0.446; “GATGATTGTTCTCCCAGCTGATGAATTGTCCAAATCGAGTAAACAAATTTTCCTAATCTTTCTGTTCAAGCGCCATCTAC”: 0.312.

Turning to “GATGATTGTTCTCCCAGCTGATGAATTGCAATACTCGAGTAAACAAATTTTCCTAATCTTTCTGTTCAAGCGCCATCTAC”, the binding signal (RPM ratio (pull-down/input)) came to 1.55. As to “GATGATTGTTCTCCCAGCTGATGAATTCGATTGGTCGAGTAAACAAATTTTCCTAATCTTTCTGTTCAAGCGCCATCTAC”, the binding signal (RPM ratio (pull-down/input)) was 3.14.

In the case of “GATGATTGTTCTCCCAGCTGATGAATTCAGGATGTCGAGTAAACAAATTTTCCTAATCTTTCTGTTCAAGCGCCATCTAC”, the binding signal (RPM ratio (pull-down/input)) was found to be 0.37. The same measure for “GATGATTGTTCTCCCAGCTGATGAATTCACGCTATCGAGTAAACAAATTTTCCTAATCTTTCTGTTCAAGCGCCATCTAC”: 0.944; for “GATGATTGTTCTCCCAGCTGATGAATTGCGGATATCGAGTAAACAAATTTTCCTAATCTTTCTGTTCAAGCGCCATCTAC”: 0.849. The same measure for “GATGATTGTTCTCCCAGCTGATGAATTATTGCGATCGAGTAAACAAATTTTCCTAATCTTTCTGTTCAAGCGCCATCTAC”: 1.08. For “GATGATTGTTCTCCCAGCTGATGAATTGAGCATCTCGAGTAAACAAATTTTCCTAATCTTTCTGTTCAAGCGCCATCTAC”, the binding signal (RPM ratio (pull-down/input)) was found to be 6.26.

For “GATGATTGTTCTCCCAGCTGATGAATTGTCAAACTCGAGTAAACAAATTTTCCTAATCTTTCTGTTCAAGCGCCATCTAC”, the binding signal (RPM ratio (pull-down/input)) was determined as 0.314. Turning to “GATGATTGTTCTCCCAGCTGATGAATTACGGCCGTCGAGTAAACAAATTTTCCTAATCTTTCTGTTCAAGCGCCATCTAC”, the binding signal (RPM ratio (pull-down/input)) amounted to 0.423. Regarding “GATGATTGTTCTCCCAGCTGATGAATTCACGAGCTCGAGTAAACAAATTTTCCTAATCTTTCTGTTCAAGCGCCATCTAC”, the binding signal (RPM ratio (pull-down/input)) stood at 0.201.

Consider “GATGATTGTTCTCCCAGCTGATGAATTACATTCCTCGAGTAAACAAATTTTCCTAATCTTTCTGTTCAAGCGCCATCTAC”, for which the binding signal (RPM ratio (pull-down/input)) was determined as 0.575. Next, “GATGATTGTTCTCCCAGCTGATGAATTGCCGAAATCGAGTAAACAAATTTTCCTAATCTTTCTGTTCAAGCGCCATCTAC”: 0.5; “GATGATTGTTCTCCCAGCTGATGAATTTTATCCATCGAGTAAACAAATTTTCCTAATCTTTCTGTTCAAGCGCCATCTAC”: 0.449; “GATGATTGTTCTCCCAGCTGATGAATTTTATGGCTCGAGTAAACAAATTTTCCTAATCTTTCTGTTCAAGCGCCATCTAC”: 0.599. Take “GATGATTGTTCTCCCAGCTGATGAATTTGGATCGTCGAGTAAACAAATTTTCCTAATCTTTCTGTTCAAGCGCCATCTAC”: the binding signal (RPM ratio (pull-down/input)) came out at 0.426. Consider “GATGATTGTTCTCCCAGCTGATGAATTTCGTCAATCGAGTAAACAAATTTTCCTAATCTTTCTGTTCAAGCGCCATCTAC”, for which the binding signal (RPM ratio (pull-down/input)) was 0.411.

As for “GATGATTGTTCTCCCAGCTGATGAATTCAGCTTGTCGAGTAAACAAATTTTCCTAATCTTTCTGTTCAAGCGCCATCTAC”, the binding signal (RPM ratio (pull-down/input)) was determined as 2.84. With “GATGATTGTTCTCCCAGCTGATGAATTTGTGGCCTCGAGTAAACAAATTTTCCTAATCTTTCTGTTCAAGCGCCATCTAC”, the binding signal (RPM ratio (pull-down/input)) worked out at 3.98. In the case of “GATGATTGTTCTCCCAGCTGATGAATTACAGCATTCGAGTAAACAAATTTTCCTAATCTTTCTGTTCAAGCGCCATCTAC”, the binding signal (RPM ratio (pull-down/input)) was found to be 5.18. Turning to “GATGATTGTTCTCCCAGCTGATGAATTGCTGCGTTCGAGTAAACAAATTTTCCTAATCTTTCTGTTCAAGCGCCATCTAC”, the binding signal (RPM ratio (pull-down/input)) stood at 1.69. Turning to “GATGATTGTTCTCCCAGCTGATGAATTTATTTTGTCGAGTAAACAAATTTTCCTAATCTTTCTGTTCAAGCGCCATCTAC”, the binding signal (RPM ratio (pull-down/input)) stood at 5.94.

Turning to “GATGATTGTTCTCCCAGCTGATGAATTGCGGCAATCGAGTAAACAAATTTTCCTAATCTTTCTGTTCAAGCGCCATCTAC”, the binding signal (RPM ratio (pull-down/input)) is 2.99. The same measure for “GATGATTGTTCTCCCAGCTGATGAATTGTTGAACTCGAGTAAACAAATTTTCCTAATCTTTCTGTTCAAGCGCCATCTAC”: 0.447; for “GATGATTGTTCTCCCAGCTGATGAATTCTGCGTGTCGAGTAAACAAATTTTCCTAATCTTTCTGTTCAAGCGCCATCTAC”: 5.15. Take “GATGATTGTTCTCCCAGCTGATGAATTGTCCGGGTCGAGTAAACAAATTTTCCTAATCTTTCTGTTCAAGCGCCATCTAC”: the binding signal (RPM ratio (pull-down/input)) is 0.178. The same measure for “GATGATTGTTCTCCCAGCTGATGAATTTGCCTGGTCGAGTAAACAAATTTTCCTAATCTTTCTGTTCAAGCGCCATCTAC”: 0.914; for “GATGATTGTTCTCCCAGCTGATGAATTGTCACGCTCGAGTAAACAAATTTTCCTAATCTTTCTGTTCAAGCGCCATCTAC”: 0.524. Consider “GATGATTGTTCTCCCAGCTGATGAATTATCCCCTTCGAGTAAACAAATTTTCCTAATCTTTCTGTTCAAGCGCCATCTAC”, for which the binding signal (RPM ratio (pull-down/input)) stood at 0.246.
